The values that follow come from PubChem BioAssay AID1625 (Sanford-Burnham Center for Chemical Genomics, 2009).

The structures appear in SMILES notation. Some of the results follow. The main result of the screen is listed elsewhere. These columns were measured beside it and carry no call. Most of these compounds were active or inconclusive in the main read-out, so they are no random draw.

The experiment can be described thus: up-regulation of insulin promoter-GFP reporter – imaging, high-content screening, mouse beta cells (AID 1625).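 Also: total cells summed across four imaged fields per well.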 As to conditions: MIN6 insulin promoter-GFP reporter, measured here: cytotoxicity, nuclei count, at 5 µM.
Take `COc1cc2c(cc1NC(=O)CN1CCN(S(=O)(=O)c3ccccc3F)CC1)oc1ccccc12`: the cell count came out at 758 cells.
As for `CCC(C)(C)c1ccc(OCCCC[n+]2cccc(C)c2C)c(C(C)(C)CC)c1`, the figure is 284 cells; as for `COC(=O)c1cc(CSc2nnc(-c3ccccc3)c(-c3ccccc3)n2)oc1C`, 435 cells.
As for `CN(Cc1ccccc1)C1=CC(=[N+]2CCCC2)CC(C)(C)C1`, the figure is 235 cells.
As for `Cc1nc2ccccc2c2c1CC(C(C)(Cl)Br)O2` (centres undefined), the figure is 442 cells.
Molecule `Cn1c(=O)oc2cc(S(=O)(=O)N3CCCC(C(=O)NCc4ccc5c(c4)OCO5)C3)ccc21` (centres undefined) gave a cell count of 141 cells.
With `CCS(=O)(=O)c1ccc(N=Nc2ccc(O)c3ncccc23)c(OC)c1`, the cell count stood at 344 cells.
Take `Cc1ccccc1NC1=C/C(=N\S(=O)(=O)c2cccs2)c2ccccc2C1=O`: the cell count stood at 403 cells.
As for `CCCN(CCC)C(=O)CSc1nc2n[nH]c(C)c2c(=N)n1-c1ccc(OC)cc1`, the figure is 435 cells; as for `COc1ccccc1NC(=O)COC(=O)C1CC2C=CC1C2` (centres undefined), 1140 cells.
`CCCCN1/C(=C/c2ccc3ccccc3[n+]2CC)Sc2ccccc21` yielded a cell count of 460 cells.
With `Cc1ccc2c(c1)c1c3n2CCCNC3CCC1` (centres undefined) the figure was 393 cells; with `Cc1cc(N2CCCC2)ccc1/C=C1/C(=O)N(C)C(=S)N1C`, 1350 cells.
For `CC1C/C(=C/c2ccncc2)C(=O)/C(=C/c2ccncc2)C1` (centres undefined), the cell count is 422 cells.
`Cn1c(-c2ccc(F)cc2)cnc1SCC(=O)N1CCCc2ccccc21` showed a cell count of 252 cells.
As for `Nc1c(Cl)ncnc1N/N=C/c1ccc2ccccc2n1`, the cell count came to 229 cells.
As to `CCOC(=O)c1sc2cc([N+](=O)[O-])cc(SCC(C)C)c2c1N`, the cell count came out at 947 cells.
With `COC(=O)c1c(C)oc2ccc(N(C(=O)c3ccncc3)S(=O)(=O)c3ccc(C)cc3)cc12` the figure was 401 cells; with `Cc1cccc2sc(NC(=O)C3CCCN(S(=O)(=O)c4cccc5nonc45)C3)nc12` (centres undefined), 1350 cells.
With `CC(=O)C1=NN(c2ccccc2)C(c2cccs2)N1c1ccc(N(C)C)cc1` (centres undefined) the figure was 203 cells.
As for `CCCCN1C(=O)/C(=C/C=C2/CC(C)(C)CN2C)SC1=S`, the figure is 1160 cells.
The molecule `O=C(/C=C/c1cn(CC(O)CN2CCCCC2)c2ccccc12)c1cccs1` (centres undefined) returned a cell count of 1060 cells.
For the molecule `O=C(Nc1nccs1)C1(c2ccc(Cl)cc2)CC1`, the cell count is 296 cells.
As for `CC(C)(C)C(=O)/C(=C/c1cccc([N+](=O)[O-])c1)n1cncn1`, the figure is 221 cells.
Consider `N#CCc1nc(CSc2nc3ccccc3s2)cs1`, for which the cell count was 1160 cells.
Regarding `COc1cccc(/C=N/Nc2ncc(C(F)(F)F)cc2Cl)c1O`, the cell count was determined as 222 cells.
On to `COc1ccc(CCNc2ncnc3c2oc2ccccc23)cc1OC`, for which the cell count was 156 cells.
As for `CC[n+]1c(/C=C/N(C)c2ccccc2)oc2ccc(Cl)cc21`, the figure is 405 cells; as for `CCCC(=O)c1c(C)c2ccccc2n1C`, 1450 cells.
With `COc1ccccc1-[n+]1c(C)cc(/C=C2\Sc3ccccc3N2C)cc1C` the figure was 372 cells.
In turn, `N#C/C(=C\c1ccc(N2CCOCC2)o1)c1ccccc1` gave a cell count of 1080 cells.
For `COCCNC(=S)N/N=C/c1ccc(-c2ccc([N+](=O)[O-])cc2)o1`, the cell count came to 1380 cells.
As for `Cc1ccc(C#CC[N+]2(CC#Cc3ccc(C)cc3)CCCCC2)cc1`, the figure is 480 cells; as for `CN1/C(=C\C=C2/C(=O)Oc3ccccc3C2=O)C(C)(C)c2ccccc21`, 1330 cells; as for `Cc1ccc(-n2nnnc2Sc2ccc(S(=O)(=O)NCCN(C)C)cc2[N+](=O)[O-])cc1`, 331 cells.
As to `CCCNc1nc2c(c(=O)n(C)c(=O)n2C)n1Cc1cccc(C)c1`, the cell count is 325 cells.
With `Cc1ccc(N=Nc2ccc(O)c3ncccc23)cc1` the figure was 311 cells.
`CN(C)c1ccc(/C=C/c2ccc3c4ccccc4ccc3[n+]2-c2ccccc2)cc1` came in with a cell count of 335 cells.
With `Cc1ccc2c(c1)[nH]c1c(N3CCN(Cc4ccccc4)CC3)ncnc12` the figure was 242 cells; with `CCn1c(SCc2ccccc2)nnc1-c1ccc(S(=O)(=O)N2CCCCC2)cc1`, 396 cells; with `Cc1ccc(N=C2NC(=O)/C(=C/c3cn(C)c4ccccc34)S2)cc1C`, 1180 cells.
As for `CCC(=O)Nc1ccc2c(c1)ncn2-c1ccccc1`, the figure is 1430 cells.
With `Cc1ccc(Nc2nc3c([nH]2)c(=O)n(C)c(=O)n3C)cc1` the figure was 1490 cells; with `N#Cc1nc(N2CCOCC2)nc(N2CCOCC2)n1`, 1150 cells; with `Cc1cc(C)c(NC(=S)NC(=O)c2c(Cl)c(C)nn2C)c([N+](=O)[O-])c1`, 376 cells.
The molecule `CCN1/C(=C/c2cc[n+](C)cc2)C=Cc2cc(C)ccc21` had a cell count of 211 cells.
As for `CC(=O)c1c(C)[nH]c(C(=O)OCCCCN2C(=O)c3ccccc3C2=O)c1C`, the figure is 329 cells.
With `C=CCNC(=O)C1CC2Cn3c(nc4cc5ccccc5cc43)C2N1C` (centres undefined) the figure was 748 cells; with `CCCN1C=CC(=C/C=C(\C#N)C(=O)OCC)C=C1`, 1650 cells.
As for `COc1cc(OC)nc(-n2ncc(Br)c(Br)c2=O)n1`, the figure is 224 cells.
In turn, `Cc1c(C(C)C)c(=O)n(-c2ccc(S(=O)(=O)NCc3ccccc3)cc2)n1C` yielded a cell count of 442 cells.
Molecule `COc1cccc(OCCOCCN(C)CCO)c1` came in with a cell count of 484 cells.
As for `Cc1ccn2c(NC3CCCCC3)c(C)nc2c1`, the figure is 1170 cells; as for `COc1cc(CNCc2ccncc2)cc(Br)c1OCc1ccccc1F`, 390 cells; as for `Fc1ccccc1/C=N/Nc1nc(-c2ccccn2)nc2ccccc12`, 451 cells.
With `Cc1cnc(NC(=O)CN2CCN(c3ccccn3)CC2)s1` the figure was 1410 cells.
With `COc1cccc(C2CC(C(F)(F)F)n3ncc(C(=O)O)c3N2)c1` (centres undefined) the figure was 338 cells; with `CN1CCc2c(sc(NC(=O)c3cc4cc([N+](=O)[O-])ccc4s3)c2C(N)=O)C1`, 214 cells; with `CCCCCc1ccc(OCCCC[n+]2ccccc2)c(CCCCC)c1`, 401 cells.
As for `CC1=C/C(=N\OS(=O)(=O)c2ccccc2)C(C)=CC1=O`, the cell count is 367 cells.
With `COc1ccc(CCNC(=O)c2cnn3cccnc23)cc1OC` the figure was 445 cells; with `CC(NC(=O)c1cc(COc2ccc3ncccc3c2)on1)c1ccc(F)cc1` (centres undefined), 470 cells.
With `O=C(CSc1nnc(-c2ccccc2)n1Cc1ccco1)NCc1ccc2c(c1)OCO2` the figure was 428 cells; with `CCCN1CC=C2C(C#N)=C(N)C(C#N)(C#N)C(c3cc(OC)ccc3OC)C2C1` (centres undefined), 1300 cells.
As for `COc1cccc(/C=N/Nc2ncnc3scc(-c4ccccc4)c23)c1O`, the figure is 290 cells.
In the case of `O=C(CNC(=O)OCc1ccccc1)Oc1cc2oc(=O)cc(-c3ccccc3)c2cc1Cl`, the cell count turned out to be 456 cells.
For `O=C(Nc1ccc(F)cc1)N(Cc1ccco1)Cc1cc2cc3c(cc2[nH]c1=O)OCO3`, the cell count amounted to 449 cells.
As for `CC1(C)CC(N2CCCCC2)=CC(=[N+]2CCCCC2)C1`, the figure is 252 cells; as for `COc1cc(NS(=O)(=O)c2ccc(C)cc2C)cc(OC)c1OC`, 225 cells; as for `O=c1ccnc(Nc2ccc3c(c2)OCCO3)[nH]1`, 1340 cells.
As for `CCCN(CCC)CCNC(=O)c1cc2c(C)nc3ccccc3c2o1`, the figure is 429 cells.
`CCCCCCCOC(=O)C[N+](C)(C)CCOC1CC2CCC1(C)C2(C)C` (centres undefined) displayed a cell count of 344 cells.
As for `CN(C)c1ccc(/C=N/NC(=O)CN(c2ccccc2Cl)S(C)(=O)=O)cc1Br`, the figure is 1470 cells; as for `Cc1cc(C(=O)CSc2nc3ccccc3c(=O)n2C)c(C)n1CC1CCCO1` (centres undefined), 333 cells.
As for `CCOC(=O)C1=C(c2ccc(OC)cc2)C(=O)c2ccccc2C1=O`, the figure is 458 cells; as for `C/C(=N\Nc1ncc(Cl)cc1Cl)c1ccccn1`, 335 cells; as for `Cc1sc2ncnc(N3CCN(CCOc4ccc(Cl)cc4)CC3)c2c1C`, 355 cells.
With `CN(C)CCCn1c(SCC(=O)Nc2nc(-c3cccc(Br)c3)cs2)nc2ccccc2c1=O` the figure was 202 cells; with `CCN(Cc1ccncc1)S(=O)(=O)c1ccc(C(C)=O)cc1`, 369 cells; with `O=C1C(N2CCOCC2)=C(n2nnc3ccccc32)C(=O)c2ccccc21`, 386 cells.
As for `CC1Sc2n(c3ccccc3[n+]2C)N=C1c1ccccc1` (centres undefined), the cell count is 463 cells.
With `Cc1ccc(S(=O)(=O)c2cccc(S(=O)(=O)N3CCCC3)c2)cc1S(=O)(=O)N1CCCC1` the figure was 566 cells; with `COc1cc(CC(=O)OCC(=O)c2ccc3c(c2)OCCO3)cc(OC)c1OC`, 474 cells.
With `Clc1cccc(CN2COc3c(cc(Cl)c4cccnc34)C2)c1` the figure was 483 cells.
As for `COc1ccc(C2C(C(=O)N3CCOCC3)CCC(=O)N2c2ccc(OC)cc2)cc1` (centres undefined), the figure is 1530 cells; as for `Cc1ccccc1OCCCCc1c(C)n[nH]c1C`, 493 cells.
`Cc1oc(C)c2c(=O)ccc3c(c12)OC(N)=C(C#N)C3c1ccccc1Cl` (centres undefined): the cell count worked out at 1480 cells.
In turn, `CC(C)OCCCNc1ncnc2c1[nH]c1ccc(F)cc12` yielded a cell count of 328 cells.
`O=C(c1cccs1)c1no[n+]([O-])c1C(=O)c1cccs1` gave a cell count of 1390 cells.
With `C=CCOc1cccc(C2c3c(oc4ccccc4c3=O)C(=O)N2c2ccccn2)c1` (centres undefined) the figure was 309 cells; with `Cc1ccc2[nH]c3c(c2c1)CN(C(=O)CN1CCCc2ccccc21)CC3`, 382 cells.
Molecule `COc1cc2c3nnc(-c4ccc(F)cc4)c-3cn(Cc3ccccc3F)c2cc1OC` yielded a cell count of 963 cells.
Molecule `N#C/C(=C/c1ccc(N2CCOCC2)o1)c1nc2ccccc2[nH]1` showed a cell count of 1100 cells.
With `COc1ccccc1N/C=C/c1onc(C)c1[N+](=O)[O-]` the figure was 1360 cells; with `COc1ccc(CCn2nnnc2C(C(C)C)N2CCN(c3ncccn3)CC2)cc1OC` (centres undefined), 455 cells.
Regarding `c1ccc(C[n+]2cccc3c4ccccc4ccc32)cc1`, the cell count was found to be 186 cells.
As for `Cn1c(=O)oc2cc(S(=O)(=O)N3CCC(C(=O)N4CC=C(c5ccccc5)CC4)CC3)ccc21`, the figure is 445 cells; as for `CCCN(CCC)C1=CC(=[N+]2CCCC2)CC(C)(C)C1`, 300 cells.
With `COc1ccc(C(O)c2nc3ccccc3n2C)cc1OC` (centres undefined) the figure was 191 cells; with `COc1ccc(Nc2nc(N3CCCC3)c3ccccc3n2)cc1`, 320 cells; with `Cc1ccnc(SCC(=O)Nc2sc3c(c2C#N)CCCC3)n1`, 341 cells.
On to `O=c1c2ccccc2nc(/C=C/c2ccc([N+](=O)[O-])o2)n1CCCO`, for which the cell count was 258 cells.
As for `Cc1cc(/C=C2\SC(=S)NC2=O)c(C)n1-c1ccc(O)cc1`, the cell count was found to be 1010 cells.
As for `COc1ccccc1OCC(O)Cn1c(=N)n(Cc2ccccc2)c2ccccc21` (centres undefined), the figure is 489 cells.
`CCN1CCN(c2cc(C)c3cc(NC(=O)c4ccccc4F)ccc3n2)CC1` came in with a cell count of 352 cells.
`CN(C)c1cc[n+](Cc2ccccc2)cc1` registered a cell count of 442 cells.
As for `CCOc1ccc(CNC(=O)CCn2c(=O)oc3ccccc32)cc1`, the figure is 1170 cells.
With `O=C1C(=O)c2ccc(-c3ccccc3)cc2-c2ccccc21` the figure was 476 cells; with `COc1ccc(N=Nc2ccc(O)c3ncccc23)cc1`, 258 cells.
